# Test results published in PubChem BioAssay AID2546 (National Center for Advancing Translational Sciences (NCATS), 2010).
# The campaign covered roughly 310,000 compounds. About 11,000 (3.5%) were called active. This list was built around the results that the source calls inconclusive (neither active nor inactive); the mix of calls is not that of the screen. The call rests on the fitted dose curve; in most records, active means well fitted inhibition curve with a large enough effect; inconclusive means small, poorly fitted or top-dose-only effect, or effect the other way; inactive means flat fitted curve, though single readings scatter. No potency is given beside an inconclusive call; the fits are too rough.
# Experiment: VP16 counterscreen qHTS for inhibitors of ROR gamma transcriptional activity;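 further: Gal4-VP16 expression switched on by copper sulfate through the metallothionein promoter; nearly all actives have a fitted effect of over 50% in size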
# Details: Drosophila S2 Gal4-VP16 UAS-luciferase, luminescence, 20 h; activity, negative = inhibition: at 53.6 µM (top of the series)
# On the % scale 0 is the no-effect control and ±100 the full control effect; potency means the concentration at half of the fitted maximal effect; tags describe the fitted curve by direction and shape.
Structure (SMILES),Potency,"activity, negative = inhibition"
O=C(NC1CCCCC1)C(c1cccnc1)N(C(=O)CCl)c1cccc(Cl)c1 (stereo not drawn),"inconclusive [inhibitor, single point]",–
CC12CC3CC(C)(C1)CC(C(=O)Nc1nncs1)(C3)C2,active: 17.8 µM,–
O=C(CCN1C(=O)/C(=C/c2ccccc2Cl)SC1=S)Nc1ccccc1C(=O)O,–,inactive: 2.02%
O=C(Oc1cccc2cccnc12)c1cccc(N2C(=O)C3C4CCC(C4)C3C2=O)c1 (stereo not drawn),"inconclusive [inhibitor, single point]",–
Cn1nc(-c2ccc(OCC(=O)Nc3cccnc3)cc2)c2ccccc2c1=O,active: 15.8 µM,–
Nc1ccc2nc[nH]c2c1,"inconclusive [inhibitor, single point]",–
N#Cc1ccc(-c2ccc(Cl)cc2)nc1Oc1ccc(F)cc1,"inconclusive [inhibitor, single point]",–
NS(=O)(=O)c1ccc(N=Cc2c(O)c3ccccc3oc2=O)cc1,–,inactive: -4.52%
CCCCOc1ccccc1Cn1c(=O)oc2ccc(C)cc21,–,inactive: 2%
O=S(=O)(Nc1nc2ccccc2nc1Nc1cccc(S(=O)(=O)N2CCCCC2)c1)c1ccccc1,active: 12.6 µM,–
CC(C)(C)c1ccc(O)c(O)c1,"inconclusive [inhibitor, partial curve]",–
FC(F)(F)C1CCCN(c2nsc3ccccc23)C1 (stereo not drawn),active: 28.2 µM,–
C/C(=N\NC(=O)c1ccc(F)cc1)c1ccccn1,active: 0.398 µM,–
CC(=O)Nc1cccc(-c2csc(Nc3cccc(C)n3)n2)c1,"inconclusive [inhibitor, full curve]",–
O=C(NNC(=O)c1ccccc1OCc1ccccc1)c1ccccc1O,active: 11.2 µM,–
C=CCc1ccccc1OCC(O)CN1CCN(c2ccc(C)cc2)CC1 (stereo not drawn),"inconclusive [inhibitor, single point]",–
Cc1ccc2nc(N/N=C/c3ccco3)cc(C)c2c1,"inconclusive [inhibitor, single point]",–
O=C(COC(=O)c1cc(-c2ccc(F)cc2)nc2ccccc12)NCC1CCCO1 (stereo not drawn),–,inactive: -4.07%
OCC1CCCCN1C(=S)Nc1ccc(Cl)cc1Cl (stereo not drawn),"inconclusive [inhibitor, single point]",–
C/C(N)=C(/C#N)C(=O)COC(=O)c1cc(C)n(-c2ccc(F)cc2)c1C,–,inactive: -3.93%
COc1cc2c(c3oc(-c4ccccc4)cc(=O)c13)C=CC(C)(C)O2,"inconclusive [inhibitor, single point]",–
Cc1ncc(CO)c(/C=N/NC(=O)c2ccc(Br)cc2)c1O,"inconclusive [inhibitor, single point]",–
COc1ccc(S(=O)(=O)N(Cc2ccc(OC)c(OC)c2)Cc2ccco2)cc1,"inconclusive [inhibitor, single point]",–
O=C(OCC1OC2OC3(CCCCC3)OC2C2OC3(CCCCC3)OC12)c1ccccc1 (stereo not drawn),"inconclusive [activator, single point]",–
CC(C)(C)OC(=O)n1cc(/C=N/NC(=O)c2ccco2)c2ccccc21,"inconclusive [inhibitor, single point]",–

Structure (SMILES),Potency,"activity, negative = inhibition"
COC(=O)c1[nH]c2cc(C)ccc2c1NC(=O)CN1CCCc2ccccc21,"inconclusive [inhibitor, single point]",–
Nc1ncnc2nc(SCc3ccc(Cl)cc3Cl)[nH]c12,"inconclusive [inhibitor, single point]",–
Cc1ccc(-c2nnn(CC(=O)N(CC3CCCO3)C(C(=O)NC3CCCC3)c3ccc(F)cc3)n2)o1 (stereo not drawn),"inconclusive [inhibitor, partial curve]",–
COc1cccc(NC(=S)NC(=O)c2c(Cl)c(C)nn2C)c1,"inconclusive [inhibitor, single point]",–
COc1ccc(CCNC(=O)c2cc(CC(C)C)on2)cc1OC,"inconclusive [inhibitor, single point]",–
CCCc1ccc(-c2c(C)sc(NC(=O)c3ccnn3C)c2C#N)cc1,"inconclusive [inhibitor, single point]",–
CCOC(=O)c1ccccc1NC(=O)Cn1c(-c2nonc2N)nc2ccccc21,"inconclusive [inhibitor, single point]",–
O=C(NC(=C(Cl)Cl)S(=O)(=O)c1ccc(Cl)cc1)c1ccccc1,"inconclusive [inhibitor, single point]",–
COc1cc(C(=O)NC(=S)Nc2ccc([N+](=O)[O-])cc2C)cc(OC)c1OC,"inconclusive [inhibitor, single point]",–
CCN1C(=O)c2cccc3c(S(=O)(=O)N(C(=O)c4ccncc4)c4ccc(OC)cc4)ccc1c23,active: 7.94 µM,–
Cc1c(-c2n[nH]c(=S)n2-c2ccc(C(F)(F)F)cc2)nnn1-c1ccccc1,"inconclusive [inhibitor, single point]",–
O=C(NN=C(Cc1ccccc1)Cc1ccccc1)c1ccccc1O,"inconclusive [inhibitor, single point]",–
COC(=O)CCC(=O)NNC(=O)CCCOc1ccc(Cl)cc1Cl,"inconclusive [inhibitor, single point]",–
O=C(N/N=C/C1CC=CCC1)c1ccc(Cl)cc1O (stereo not drawn),active: 10 µM,–
CCOc1cc(Br)cc(/C=C2\SC(=Nc3ccccc3)NC2=O)c1O,"inconclusive [inhibitor, single point]",–
Cc1cccc(C(=O)N/C(=C\c2ccc(C)o2)C(=O)O)c1,–,inactive: -2.56%
Cc1nc(-c2ccncc2)sc1C(=O)Nc1ccc(Cl)cc1,–,inactive: 2.48%
O=C(O)COc1ccc(-c2nccc(-c3ccccn3)n2)cc1,"inconclusive [inhibitor, full curve]",–
COc1cccc(CNc2ccc3c(c2)ncn3C(C)C)c1OC,"inconclusive [inhibitor, single point]",–
COC(=O)c1ccccc1S(=O)(=O)N1CCn2cccc2C1C (stereo not drawn),–,inactive: 6.32%
S=C(NCCc1ccccc1)Nc1ccc(Br)cc1,"inconclusive [inhibitor, single point]",–
O=C(CCCn1c(=S)[nH]c2cc3c(cc2c1=O)OCO3)N1CCN(c2ccc(Cl)cc2)CC1,active: 5.62 µM,–
O=C(NNC(=S)Nc1ccc(F)cc1)[C@H]1C[C@@H]1c1ccccc1,–,inactive: -19.7%
O=C(Nc1ccc(Cl)cc1)Nc1ccon1,–,inactive: 22.2%
CCOC(=O)C1CCN(C(=O)c2cc3cc(C)ccc3[nH]2)CC1,"inconclusive [activator, full curve]",–

Structure (SMILES),Potency,"activity, negative = inhibition"
Cc1nc(NCc2ccccn2)c2ccccc2n1,"inconclusive [inhibitor, single point]",–
COC(=O)Cc1ccc(NC(=O)c2ccc3c(c2)C(=O)N(CC2CCCO2)C3=O)cc1 (stereo not drawn),"inconclusive [inhibitor, single point]",–
Cc1ccc(/C(N)=N/OC(=O)N2CCOCC2)cc1,"inconclusive [inhibitor, single point]",–
COc1cccc(N2CCN(c3ccc(N4C(=O)CCC4=O)cc3[N+](=O)[O-])CC2)c1,"inconclusive [inhibitor, single point]",–
COc1ccccc1N1CCN(C(=O)c2ccc(S(=O)(=O)N3CCCC3)cc2)CC1,–,inactive: -5.19%
Cc1ccc2nc(Nc3nc(=O)c4ccccc4n3C)nc(C)c2c1,active: 1 µM,–
CCNc1nc(CN2CCCCC2)nc2scc(-c3ccccc3)c12,"inconclusive [inhibitor, single point]",–
c1ccc2[nH]c(SCc3cn4ccccc4n3)nc2c1,"inconclusive [activator, single point]",–
CCCCN(CC)CCNC(=O)c1cc2c(-c3ccc(Cl)cc3)nn(C)c2s1,–,inactive: -10.9%
COc1cc2c(C=O)c3c4c(cc(OC)c(OC)c4c2cc1OC)CCN3C,–,inactive: -12%
C(=C\c1ccccc1)/C=N/Nc1nc2ccccc2s1,"inconclusive [inhibitor, single point]",–
O=C(Cc1cccs1)Nc1cccc(-c2nc3cc4ccccc4cc3[nH]2)c1,"inconclusive [inhibitor, single point]",–
COc1ccccc1NC(=O)Cn1nnc(-c2ccccc2NS(=O)(=O)c2ccccc2)n1,"inconclusive [inhibitor, partial curve, poor fit]",–
O=C(Nc1ccc2c3c(cccc13)CC2)c1ccc(Br)o1,"inconclusive [inhibitor, single point]",–
O=C(c1cc(-c2ccc(Br)cc2)on1)N1CCCCCC1,"inconclusive [inhibitor, full curve]",–
O=C(O)c1cc(-c2ccco2)nc2cc3ccccc3cc12,–,inactive: -8.4%
O=C(Nc1ccc(OC(F)F)cc1)Nc1cccc(C(F)(F)F)c1,active: 25.1 µM,–
O=C(Nc1nc2ccccc2s1)c1ccc2c(c1)OCO2,"inconclusive [inhibitor, single point]",–
COc1ccc(/C=N/NC(=O)c2cccnc2)cc1CN1CCN(c2ccc(F)cc2)CC1,–,inactive: -1.12%
CC(C)CN(Cc1cc(=O)oc2cc3c(cc12)CCCC3)CC(C)C,–,inactive: 0.352%
CC(C)(C)C(=O)Nc1ccc(/C=C/C(=O)c2ccco2)cc1,–,inactive: -9.82%
CCCc1cc(Nc2ccccc2OCC)n2ncnc2n1,"inconclusive [inhibitor, single point]",–
O=S(=O)(/N=C(/Nc1ccccn1)c1ccc(Cl)cc1)c1ccc(Cl)cc1,"inconclusive [activator, single point]",–
